# Measured values reported in the supplement of paper PMC11283458.
# Counter-ions that a name gives are not always drawn. Some of the results follow. Many values rest on one well or one pass, so single values are uncertain.
# How the values were obtained:
# [1] = system: Mef2d microexon dual Nano/Firefly luciferase splicing reporter in Neuro-2a cells; test: B-score of Firefly/Nano luminescence ratio, V1 Mef2d microexon reporter (B-score (plate-normalised)); higher = more Mef2d microexon inclusion; settings: 24 h
# [2] = system: Mef2d microexon dual Nano/Firefly luciferase splicing reporter in Neuro-2a cells; test: B-score of Nano/Firefly luminescence ratio, V2 Mef2d microexon reporter (B-score (plate-normalised)); higher = more Mef2d microexon inclusion; settings: 24 h
# 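For B-score of Nano/Firefly luminescence ratio, V2 Mef2d microexon reporter in this document: compounds at 4 µM (PKI library 0.5 µM) on Dox-inducible N2A Flp-In cells with PEST-tagged luciferases, 384-well plates, B-score from per-plate median-polish residual over median absolute residual.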
Compound,B-score [1],B-score [2]
CC(C)(C)c1cc2nc(C(F)(F)F)cc(N3CCN(Nc4cc(Cl)cc(Cl)c4)CC3)n2n1 (4 µM),5.57,2.7
CCOC(=O)c1sc(SC)c2c1CCC(=CN(C)C)C2=O (4 µM),6.3,2.92
NC(=O)c1ccsc1NC(=O)COC(=O)c1ncc(Cl)c(Cl)c1Cl (4 µM),-4.07,-1.46
COc1cc(/C=C/C(=O)N2CCC=CC2=O)cc(OC)c1OC [Piperlongumine] (4 µM),-1.52,-17.7
Cc1onc(-c2c(Cl)cccc2Cl)c1C(=O)SCC(=O)Nc1ccc(Cl)cc1 (4 µM),-4.5,-5.37
CCOC(=O)c1c(NC(=O)c2ccc(-c3ccccc3)cc2)sc(C(C)=O)c1C (4 µM),-8.69,-1.84
O=C(Nc1ncc(Cc2ccc(F)c(F)c2)s1)c1ccc(-n2cccn2)nc1 (4 µM),-8.86,-2.95
O=[N+]([O-])c1ccc(/C=N\Nc2ncnc3sc4c(c23)CCCC4)o1 (4 µM),3.9,6.52
O=C1C(Cl)=C(Nc2ccc(O)cc2)C(=O)c2ccccc21 (4 µM),6.07,2.21
COc1ccc(Cl)cc1NC(=O)Nc1ccc(Br)c(C(F)(F)F)c1 (4 µM),5.14,1.7
CC(C)c1ccc(-n2c(SCc3ccc([N+](=O)[O-])cc3)nnc2-c2ccc(C(C)(C)C)cc2)cc1 (4 µM),2.98,4.12
COc1ccc(C(=O)C(C#N)=Cc2ccc(O)cc2)cc1 (4 µM),11.7,1.17
C[N+]1(C)CCC(OC(=O)C(O)(c2ccccc2)C2CCCC2)C1.[Br-] (stereo not drawn) (4 µM),7.22,3.73
Cc1cc(C)n(-c2ccc([N+](=O)[O-])cc2)n1 (4 µM),-0.754,23.2
S=C(NN=Cc1ccccn1)NC1CC2C=CC1C2 (stereo not drawn) (4 µM),14.3,14.6
Cc1onc(-c2cccc(Cl)c2Cl)c1C(=O)ON=C(N)c1ccc([N+](=O)[O-])o1 (4 µM),3.46,5.23
CC(=O)OCC1OC(Oc2ccc(CC(=O)c3ccccc3)cc2)C(OC(C)=O)C(OC(C)=O)C1OC(C)=O (stereo not drawn) (4 µM),4.19,0.937
C=CC(C)(C)c1[nH]c2ccccc2c1C1=C(O)C(=O)C(c2c[nH]c3c(CC=C(C)C)cccc23)=C(O)C1=O [Demethylasterriquinone B1] (4 µM),-4.54,-4.78
CCCCCCc1ccccc1NC(=O)Nc1cccnc1 (4 µM),4.02,2.49
Nc1nc(Nc2ccc(S(N)(=O)=O)cc2)nn1C(=S)Nc1c(F)cccc1F [Cdk1/2 Inhibitor III] (0.5 µM),-19.6,-19.4

Compound,B-score [1],B-score [2]
CC(=O)OCC(=O)[C@@]1(O)CC[C@H]2[C@@H]3CCC4=CC(=O)CC[C@]4(C)[C@H]3C(=O)C[C@@]21C [Cortisone 21-acetate] (4 µM),-4.16,-2.65
CCN(CC)CCOC(=O)C1(c2ccc([N+](=O)[O-])cc2)CCCC1 [Nitrocaramiphen hydrochloride] (4 µM),27.8,15.7
CC(C)(C)c1ccc(C(O)CCCN2CCC(C(O)(c3ccccc3)c3ccccc3)CC2)cc1 (stereo not drawn) (4 µM),3.62,2.4
Cc1onc(-c2ccccc2)c1C(=O)ON=C(N)c1ccc([N+](=O)[O-])o1 (4 µM),3.37,4.61
Cc1noc(C)c1C(=O)ON=C(N)c1ccc(OC(F)(F)F)cc1 (4 µM),20.4,1.73
COc1ccc(C(=O)C=C(C(=O)c2ccccc2)c2ccccc2)cc1CN1CCOCC1 (4 µM),-7.33,-2.21
N#Cc1cc([N+](=O)[O-])cnc1SCC(=O)Nc1ccccc1 (4 µM),-2.87,-8.62
COc1cccc(-c2cc(C(=O)NC3CCCc4ccccc43)[nH]n2)c1 (stereo not drawn) (4 µM),-3.82,-5.71
C[C@@H](Oc1cc(-c2cnn(C3CCNCC3)c2)cnc1N)c1c(Cl)ccc(F)c1Cl (0.5 µM),6.44,2
CC(=O)Nc1ccc(-c2ccc(NC(C)=O)cc2)cc1 (4 µM),-3.82,-4.66
CC(C)(C)c1ccc2[nH]c3c(c2c1)CCCC3=O (4 µM),-4.69,-10.4
O=c1[nH]c(=O)n(C2CC(O)C(CO)O2)cc1I (stereo not drawn) (4 µM),4.72,0.391
O=C(c1ccc(Cl)cc1)C(CN1CCOCC1)c1ccccc1 (stereo not drawn) (4 µM),-4.41,-7.13
CCc1cccc(N2CC(C(=O)Nc3nc4ccccc4[nH]3)CC2=O)c1 (stereo not drawn) (4 µM),-1,-5.59
O=C(Nc1ccc(Cl)cc1)ON=C1CC2CCCC(C1)N2Cc1ccccc1 (4 µM),-3.22,-10.8
Cc1onc(-c2c(Cl)cccc2Cl)c1-c1nc(-c2cc(Cl)c(N)c(Cl)c2)no1 (4 µM),9.11,0.947
CCOC(=O)C(=Cc1cccc([N+](=O)[O-])c1)C(=O)OCC (4 µM),-2.38,-2.16
COCCCNC(=S)N/N=C/c1cccc(OC)c1O (4 µM),1.7,6.36
CC[C@]1(O)C[C@H]2CN(CCc3c([nH]c4ccccc34)[C@@](C(=O)OC)(c3cc4c(cc3OC)N(C=O)[C@H]3[C@@](O)(C(=O)OC)[C@H](OC(C)=O)[C@]5(CC)C=CCN6CC[C@]43[C@@H]65)C2)C1 [Vincristine sulfate] (4 µM),-1.86,-6.16
